# In all, about 420,000 compounds went through this assay and about 64,000 (15%) were called active. This list was built around the results that the source calls inconclusive (neither active nor inactive); the mix of calls is not that of the screen. Calls come from the whole dose curve; as a rule, active = well fitted inhibition curve with a large enough effect; inconclusive = small, poorly fitted or top-dose-only effect; inactive = flat fitted curve, though single readings scatter. Potencies of inconclusive entries are left out as doubtful fits.
# Assay: qHTS for Inhibitors of human tyrosyl-DNA phosphodiesterase 1 (TDP1): qHTS in cells in absence of CPT; note: nearly all actives have a fitted effect of over 55% in size
# Conditions: DT40 Tdp1-/- hTDP1 cells, no CPT, ATP luminescence, 48 h; activity change, negative = growth inhibition: at 46.2 µM (top of the series) unless noted
# Procedure, shortened: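 Chicken DT40 Tdp1-/- cells stably complemented with human TDP1 were seeded at 400 cells/well with DMSO in place of 20 nM camptothecin. After compound pinning, cells grew at least 48 hr at 37 °C; viability read by CellTiter-Glo luminescence.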
# % is set by controls: 0 for no effect and ±100 for the full control effect; potency is the fitted concentration of half-maximal effect; tags give direction and shape of the fitted curve.
SMILES,Potency,"activity change, negative = growth inhibition"
Cc1ccccc1CSc1nsc(N)n1,"inconclusive [inhibitor, single point]",
Cc1ccccc1Nc1sc(C(=O)Nc2cccc(Cl)c2)c(N)c1C(N)=O,,inactive: 4.19%
Cc1ccnc(SC2CC(=O)N(c3ccc(Cl)cc3)C2=O)n1 (configuration not stated),"inconclusive [inhibitor, partial curve, poor fit]",
O=C(COC(=O)c1cc(Br)ccc1O)NCCC1=CCCCC1,,inactive: -11%
CCn1c(=O)c(CCC(=O)NCCN2CCOCC2)c(C)c2c(C)nn(-c3ccccc3)c21,"inconclusive [inhibitor, single point]",
CS(=O)(=O)N1N=C(c2cccs2)CC1c1ccc(Cl)o1 (configuration not stated),"inconclusive [inhibitor, single point]",
O=C(CSc1ncccn1)NCC1CCCO1 (configuration not stated),,inactive: 0.619%
NS(=O)(=O)c1ccc(N=NN2CCCCC2)cc1,"inconclusive [inhibitor, partial curve, poor fit]",
O=C(OCc1cn([C@H]2CN(Cc3cccs3)[C@@H](c3ccc(Cl)cc3)C[C@@H]2O)nn1)c1ccccc1,,inactive: -26.3%
Cc1cc(C(=O)NNC(=S)NC2CCCCC2)cs1,"inconclusive [inhibitor, single point]",
O=C(c1ccc(S(=O)(=O)N2CCCCC2)cc1)N1CCc2ccccc2C1,"inconclusive [inhibitor, single point]",
COc1ccccc1CNC(=O)CCC(=O)N1CCOc2ccc(Cl)cc21,"inconclusive [inhibitor, single point]",
COc1ccccc1-c1noc(-c2ccc(NC3CCCCC3)c([N+](=O)[O-])c2)n1,"inconclusive [inhibitor, single point]",
Cc1c(-c2cccc(NC(=O)Nc3ccc(Cl)cc3)c2)nc2ncccn12,"inconclusive [inhibitor, single point]",
Cc1cccc(NC(=S)N2CCN(Cc3ccccc3)CC2)c1C,"inconclusive [inhibitor, single point]",
CCCn1c(SCC(=O)c2cc(OC)ccc2OC)nnc1-c1ccco1,"inconclusive [inhibitor, single point]",
CC1CCCCN1C(=O)Cn1ncc2c3ccccc3n(Cc3ccccc3F)c2c1=O (configuration not stated),active: 9.2 µM,
CCOC(=O)c1c(NC(=S)Nc2cccc(C)c2)sc2c1CC(C)(C)SC2,"inconclusive [inhibitor, single point]",
COc1ccc(CN(C(=O)c2cc3ccccc3oc2=O)C2CCS(=O)(=O)C2)cc1OC (configuration not stated),inactive,
O=C(Nc1ccccc1OC(F)F)c1ccc(S(=O)(=O)N2CCCC2)cc1,,inactive: -27%
O=C(OCC12CC3CC(CC(C3)C1)C2)c1ccc(NCc2cc(O)ccc2O)cc1,active: 0.731 µM,
CCCCN(CCCNC(=O)CN1N=C(c2ccc(C)cc2)CCC1=O)c1ccccc1,active: 14.6 µM,
Cc1csc(NC(=S)Nc2cccc(Cl)c2)n1,active: 4.61 µM,
Cc1cccc(NC(=O)c2onc3c2CCCC3)n1,"inconclusive [inhibitor, single point]",

SMILES,Potency,"activity change, negative = growth inhibition"
Cc1nc2ccc(Br)cn2c1C(=O)N/N=C\c1ccc(C(C)C)cc1,active: 7.31 µM,
COc1ccc(CCn2cc(C#N)c(=O)[nH]c2=O)cc1OC,,inactive: -7.23%
COc1ccc(C(=O)Nc2ccc(Br)cc2F)cc1S(=O)(=O)N1CCCC1,"inconclusive [inhibitor, single point]",
Cc1ccc2c(c1)-c1c(cnn1CC(=O)N1CCN(c3ccccc3F)CC1)CO2,"inconclusive [inhibitor, partial curve]",
O=C(CCCc1cccs1)Nc1nc(-c2ccc(F)cc2)cs1,active: 8.2 µM,
CCc1ccc(OCC(=O)NC(=S)Nc2ccc(S(=O)(=O)NC3CCCCC3)cc2)cc1,"inconclusive [inhibitor, single point]",
CCOC(=O)CSCC(=O)N1N=C(c2cccs2)CC1c1ccc(F)cc1 (configuration not stated),"inconclusive [inhibitor, single point]",
COc1cc([N+](=O)[O-])ccc1NC(=O)Nc1ccc(C(=O)N2CCCC2)cc1,"inconclusive [inhibitor, single point]",
O=C(CCCN1C(=O)C(c2ccccc2)Oc2cccnc21)NCc1ccccc1F (configuration not stated),"inconclusive [inhibitor, single point]",
Oc1ccc(/C(Cc2ccccn2)=N\Nc2ccccc2)c(O)c1,"inconclusive [inhibitor, single point]",
COc1cc(OC)c(C(=O)O/N=C(\N)c2ccccn2)cc1OC,,inactive: -29.5%
CC(C)(C)C(=O)/C(=C/c1ccncc1)n1cncn1,active: 1.64 µM,
Cc1cccc(C)c1NC(=O)c1cccc(N2C(=O)C3CCC(C)CC3C2=O)c1 (configuration not stated),,inactive: -2.23%
COc1cc2c(cc1OC)/C(=C/C(=O)c1ccc(F)cc1)NCC2,"inconclusive [inhibitor, single point]",
CC1(Oc2cccc(F)c2)CCN(Cc2csc3ccccc23)C1 (configuration not stated),"inconclusive [inhibitor, partial curve]",
O=c1c(=O)n(Cc2ccc(Cl)cc2)ccn1Cc1ccc(F)cc1,,inactive: -17.5%
CCN1CCN(c2nc(-c3ccccc3)c3ccccc3n2)CC1,"inconclusive [inhibitor, single point]",
CN(Cc1cccc(Cl)c1)C(=O)C1CCC(=O)N(C2CC2)C1 (configuration not stated),,inactive: -18.4%
CCCN1CCc2c(sc(NC(=O)c3ccc(S(=O)(=O)N(C)c4ccccc4)cc3)c2C(=O)NC)C1,"inconclusive [inhibitor, single point]",
Cc1ccc(-c2nc(CNC(=O)Nc3ccccc3)c(C)o2)cc1,"inconclusive [inhibitor, single point]",
COc1ccc(-c2cn3cccnc3n2)cc1NC(=O)Cc1ccccc1,"inconclusive [inhibitor, single point]",
CN1C(=O)C(C)(C)c2cc(S(=O)(=O)N3CCN(c4cccc(Cl)c4)CC3)ccc21,"inconclusive [inhibitor, single point]",
CC1C(c2ccccc2)OCCN1C=NC#N (configuration not stated),,inactive: -2.15%
COc1cccc(OCC(=O)NCCS(=O)(=O)N2CCN(c3ccccc3F)CC2)c1,"inconclusive [inhibitor, partial curve]",

SMILES,Potency,"activity change, negative = growth inhibition"
O=S1(=O)C=C(Oc2ccc3ccccc3c2)c2ccccc21,"inconclusive [inhibitor, single point]",
Cc1oc2ncn(CC(C)C)c(=O)c2c1C(=O)NCCc1ccccc1,active: 16.4 µM,
S=C(Nc1ccc(Cl)cc1)NC1CC2CCC(C1)N2Cc1ccccc1 (configuration not stated),active: 16.4 µM,
COc1cc(CNCc2ccccn2)ccc1OCc1ccc(Cl)cc1Cl,"inconclusive [inhibitor, single point]",
Cc1cc(C)n2c(Nc3ccc(C(C)C)cc3)c(-c3ccsc3)nc2n1,"inconclusive [inhibitor, single point]",
O=C(NCc1cccnc1)c1cc(C(=O)NCc2cccnc2)cc([N+](=O)[O-])c1,,inactive: 5.37%
CC1(C(=O)NCc2ccco2)Cc2c(-c3cccc(C(N)=O)c3)ccnc2O1 (configuration not stated),active: 5.8 µM,
O=C(C1CC(=O)N(C2CCCC2)C1)N1CCN(c2ccc(F)cc2)CC1 (configuration not stated),,inactive: -17.9%
COc1cc(C(=O)O/N=C(\N)Cc2ccc([N+](=O)[O-])cc2)cc(OC)c1OC,active: 14.6 µM,
COc1ccccc1NS(=O)(=O)c1ccc(C)c(C(=O)NCC(c2ccco2)N2CCCCC2)c1 (configuration not stated),"inconclusive [inhibitor, single point]",
COc1ccccc1N(C)S(=O)(=O)c1ccc(C(=O)NCC2CCCCC2)cc1,active: 18.4 µM,
O=C(Nc1ccc2c(c1)OCCO2)c1cnc2ccccn2c1=O,"inconclusive [inhibitor, full curve, poor fit]",
CCc1nc2cccnc2n1-c1ccc(CC(=O)Nc2c(C)cccc2C)cc1,"inconclusive [inhibitor, single point]",
Cn1c(=O)c2cc(NC(=O)CCc3cccnc3)ccc2n1Cc1cccc(C(F)(F)F)c1,active: 18.4 µM,
CC1CN(C(=O)c2cc(S(=O)(=O)N3CCCC3)ccc2Cl)CC(C)O1 (configuration not stated),"inconclusive [inhibitor, partial curve]",
c1ccc(Cn2c(SCc3nc4ccccc4s3)nnc2-c2ccco2)cc1,"inconclusive [inhibitor, single point]",
Cn1c(=O)n(C)c2cc(/C=C(/C#N)C(=O)NCc3ccco3)ccc21,"inconclusive [inhibitor, single point]",
CCN1C[C@@H]2[C@@H]3C(=O)N(C)C(=O)[C@@H]3[C@](Cc3ccccc3)(C1=O)N2C(=O)c1ccc(F)cc1,,inactive: 4.9%
O=C(CCCl)N1CCCC2(CCCCC2)C1,,inactive: 18.3%
CC(=O)c1ccc(Nc2ccc([N+](=O)[O-])c3nonc23)cc1,active: 23.1 µM,
COc1ccc(-c2ccc(OC)c(OC)c2OC)c(OC)c1OC,"inconclusive [inhibitor, partial curve]",
COc1ccccc1OC(C)C(=O)N1CC(=O)Nc2ccccc21 (configuration not stated),,inactive: -0.894%
COc1ccc(C)cc1NC(=O)C1CCN(S(=O)(=O)c2ccc3c(c2)C(C)(C)C(=O)N3C)CC1,"inconclusive [inhibitor, single point]",
CCC(c1nnnn1-c1ccc2c(c1)OCCO2)N1CCN(C(=O)C2CCCO2)CC1 (configuration not stated),,inactive: -24.6%
